According to PubChem BioAssay AID463173 (ICCB-Longwood Screening Facility, Harvard Medical School, 2010):
Out of some 52,000 compounds screened, about 1,700 (3.3%) were called active. Rule as the data show it: active = survival mostly below about 52% (no sharp cut-off); inactive = mostly above about 56%. The list shows a part of the results.

tested on: Wild type; experiment: S. aureus survival, RN4220 and DeltatarO strains – OD600, teichoic acid synthesis inhibitors, primary screen (AID 463173); details: S. aureus RN4220 wild type/DeltatarO growth, OD600, 18 h, hits give low values, screened at 18.75 µg/mL (by protocol)

Structure (SMILES) | survival
CCOC(=O)CNC(c1ccccc1)c1cc(Br)ccc1NC(=O)c1cccc(Cl)c1 (stereo not drawn) | inactive: 66%
CCc1nnc(SCC(=O)N(CC)c2ccccc2)c2cc3oc(C)cc3n12 | inactive: 86%
CC(=O)N1CCCc2cc(S(=O)(=O)N3CCC(C(=O)NCc4ccccc4)CC3)ccc21 | inactive: 68%
Cc1ccc(CN2CCSc3ccc(C(=O)Nc4ccc(C)cc4)cc32)cc1 | inactive: 124%
CCOc1ccc(OCC)c(NC(=O)c2cnc(SC)nc2-c2ccccc2)c1 | active: 0%
Cc1ccc(C)c(NC(=O)CSc2nc3c([nH]c4ccccc43)c(=O)n2-c2ccc(F)cc2)c1 | active: 0%
COc1ccc(S(=O)(=O)NCCNc2nc3cc(C)cc(C)c3cc2C#N)cc1 | inactive: 102%
Cc1ccc(Cn2c(=O)n(Cc3ccco3)c(=O)c3oc4ccccc4c32)cc1 | inactive: 123%
Cc1ccc(C)c(Cn2c(=O)n(-c3ccc(Cl)cc3)c(=O)c3c(C)c(C)sc32)c1 | inactive: 73%
COc1ccc(CC(=O)NCC(c2ccc(Cl)cc2)N2CCOCC2)cc1 (stereo not drawn) | inactive: 76%
Cc1ccc(S(=O)(=O)c2nnn3c2nc(NC2CCCCC2)c2sccc23)cc1 | inactive: 105%
CN(C)S(=O)(=O)c1ccc2c(c1)nnn2CCNC(=O)Nc1ccc(Cl)cc1 | inactive: 55%
Cc1ccc(C)c(Oc2nc3c(c(=O)n(C)c(=O)n3C)n2Cc2ccccc2)c1 | inactive: 73%
Cc1ccc(Cc2cn3cc(-c4ccccc4)nc3s2)cc1 | inactive: 94%
CCOc1ccc(NC(=O)NCCCN2CCN(c3ccc(OC)cc3)CC2)cc1 | inactive: 87%
O=C(c1ccc(CSc2nc3ccncc3n2Cc2ccccc2F)cc1)N1CCCCC1 | inactive: 83%
Cc1c(CCC(=O)NCCc2ccccc2F)c(=O)oc2cc(O)ccc12 | inactive: 81%
CCC(C)NS(=O)(=O)c1ccc(S(=O)(=O)N(Cc2ccc(C)o2)C2CCCC2)cc1 (stereo not drawn) | inactive: 135%
CCOc1ccccc1Nc1sc(C(=O)c2ccc(Cl)cc2)c(N)c1C#N | inactive: 73%
CN(C)c1ccc(/C=C(\C#N)c2nc3ccccc3c(=O)[nH]2)cc1 | inactive: 97%

Structure (SMILES) | survival
O=C(NCc1ccc(F)cc1)c1cccc(N2CCCS2(=O)=O)c1 | inactive: 74%
O=C(NCCc1ccccc1)c1cc(-c2ccccc2)nc2n[nH]c(-c3ccccc3)c12 | inactive: 56%
Cc1ccccc1NC(=O)Cn1c(=O)n(Cc2ccco2)c(=O)c2cccnc21 | inactive: 76%
Cc1ccc(-c2cc(C(=O)NCCc3ccccc3)c3ccccc3n2)cc1C | inactive: 78%
C=CCn1c(C#N)c(N)sc1=N | inactive: 106%
CCc1ccc2c(c1)c(=O)c(C(=O)c1ccc(C)cc1)cn2CC(=O)Nc1ccc2c(c1)OCCO2 | inactive: 83%
CCN1CCN(CC2CCCCC2)CC1 | inactive: 102%
CC(C)c1ccc(NC(=O)CNC(=O)Cn2ccc3ccccc3c2=O)cc1 | inactive: 73%
CN(C(=S)S)C1CCS(=O)(=O)C1 (stereo not drawn) | inactive: 100%
Cc1ccc(Cl)cc1NC(=O)C1CCCN(S(=O)(=O)c2c(C)noc2/C=C/N(C)C)C1 (stereo not drawn) | inactive: 64%
COC(=O)c1c(NC(=O)CCCOc2ccccc2)sc2c1CCC(C)C2 (stereo not drawn) | inactive: 20%
CCC1(CC)Cc2ccccc2C(=C(C#N)C#N)N1 | inactive: 104%
CC1CCCN(S(=O)(=O)c2ccc(S(=O)(=O)N(Cc3cccs3)Cc3cccs3)cc2)C1 (stereo not drawn) | inactive: 112%
CCC(=O)N1CCc2cc(S(=O)(=O)CCC(=O)N(C)c3ccc(OC)cc3)ccc21 | inactive: 89%
O=c1[nH]ncc(NCCN2CCOCC2)c1Cl | inactive: 77%
Fc1ccc(C2=NC(c3cccc(C(F)(F)F)c3)=Nc3ccccc3N2)cc1 | inactive: 71%
COc1cc2c(cc1OC)C(c1cc3cc4c(cc3[nH]c1=O)OCO4)N(C(=O)C1CCC1)CC2 (stereo not drawn) | inactive: 116%
Cc1ccc2nc(/C(C#N)=C/c3ccc(-c4ccc(F)cc4F)o3)[nH]c2c1 | inactive: 26%
Cc1cc(Nc2cccc(Cl)c2)nc2ccc(NC(=O)c3ccc(F)cc3Cl)cc12 | inactive: 75%
O=C(Nc1ccccc1C(=O)OCc1cc(=O)n2ccsc2n1)c1cccc(F)c1 | inactive: 120%

Structure (SMILES) | survival
COc1ccc(CCCc2nnc(SCC(=O)Nc3ccc(C)c(C)c3)o2)cc1 | inactive: 66%
CCc1ccc(S(=O)(=O)c2cn(C)c3cc(N4CCN(CC)CC4)c(F)cc3c2=O)cc1 | inactive: 70%
Cc1cc(C)c2c(CC(=O)Nc3nnc(CC(C)C)s3)coc2c1 | inactive: 89%
CC(C)NS(=O)(=O)c1ccc(OCC(=O)N2CCN(c3ccccc3F)CC2)cc1 | inactive: 89%
COCCN1C(=O)C2C3c4ccccc4C(c4ccccc43)C2C1=O (stereo not drawn) | inactive: 98%
CSc1cccc(NC(=O)c2ccc3c(c2)c(C)c(C)n3Cc2ccc(F)cc2)c1 | inactive: 73%
Cc1ccc(CN2CCC(CNC(=O)Nc3c(C)cccc3C)C2)cc1 (stereo not drawn) | inactive: 94%
COc1ccccc1-c1c(C)nn2c(C(F)(F)F)cc(-c3ccccc3)nc12 | inactive: 39%
O=S1(=O)N=C(Nc2cccc(C(F)(F)F)c2)c2ccccc21 | inactive: 83%
O=C(c1ccc(CS(=O)c2ccccc2Cl)o1)N1CCN(c2ccccc2F)CC1 (stereo not drawn) | inactive: 80%
COc1cccc(C(=O)N(Cc2cccc(Cl)c2)Cc2ccco2)c1 | inactive: 75%
O=C(CCC1N=C2c3ccccc3N=C(SCc3cccc(Cl)c3)N2C1=O)NCc1cccs1 (stereo not drawn) | inactive: 75%
COc1cc(C(=O)NCCSc2c(-c3ccccc3)[nH]c3ccccc23)cc(OC)c1OC | inactive: 63%
CC(C)(C)c1ccc(OCC(=O)Nc2c(C(=O)c3ccc(F)cc3)oc3ccccc23)cc1 | inactive: 79%
CCOC(=O)c1ccccc1NC(=O)CSc1ncc2c(n1)-c1ccccc1N(CC)S2(=O)=O | inactive: 88%
COc1ccc2c(c1)N(C)/C(=C1/SC(=S)N(C)C1=O)S2 | inactive: 122%
Cc1ccc(NC(=O)Cn2c(=O)nc(-c3ccccc3F)c3cc(Cl)ccc32)c(Br)c1 | inactive: 94%
CCC(C)n1c(=N)c(S(=O)(=O)c2ccccc2)cc2c(=O)n3ccccc3nc21 (stereo not drawn) | inactive: 73%
